Measured values: US9357779B2 (priority 2010, dated 2016)

experiment: physchem; details: pH 2.7, log P (pH 2.7), pH 2.7, value given in preparation example text

**Q.** With `O=C(CC1CCCCC1)c1csc(C2CCN(C(=S)Cn3nc(C(F)F)cc3C(F)F)CC2)n1` [Compound I-58, 1-[2-(1-{2-[3,5-Bis(difluoromethyl)-1H-pyrazol-1-yl]ethanethioyl}piperidin-4-yl)-1,3-thiazol-4-yl]-2-cyclohexylethanone] as the compound, how does the chromatographic logP read?
**A.** 4.63

**Q.** For `Cc1ccc(Cl)cc1NC(=O)N1CCC(c2nc(C(=O)CC3CCCCC3)cs2)CC1` [Compound I-25, N-(5-Chloro-2-methylphenyl)-4-[4-(cyclohexylacetyl)-1,3-thiazol-2-yl]piperidine-1-carboxamide], which chromatographic logP is on record?
**A.** 4.51

**Q.** For `CCOc1ccccc1C(=O)CCc1csc(C2CCN(C(=O)Cn3nc(C(F)(F)F)cc3C)CC2)n1` [Compound I-20, 1-(2-Ethoxyphenyl)-3-[2-(1-{[5-methyl-3-(trifluoromethyl)-1H-pyrazol-1-yl]acetyl}piperidin-4-yl)-1,3-thiazol-4-yl]propan-1-one], which chromatographic logP is on record?
**A.** 3.7

**Q.** With `Cc1cc(C(F)(F)F)nn1CC(=O)N1CCC(c2nc(C(=O)/C=C/c3c(F)cccc3F)cs2)CC1` [Compound I-12, (2E)-3-(2,6-Difluorophenyl)-1-[2-(1-{[5-methyl-3-(trifluoromethyl)-1H-pyrazol-1-yl]acetyl}piperidin-4-yl)-1,3-thiazol-4-yl]prop-2-en-1-one] as the compound, how does the chromatographic logP read?
**A.** 3.83

**Q.** Which chromatographic logP does the source give for `Cc1cc(C(F)(F)F)nn1CC(=O)N1CCC(c2nc(C(=O)CCc3ccccc3)cs2)CC1` [Compound I-14, 1-[2-(1-{[5-Methyl-3-(trifluoromethyl)-1H-pyrazol-1-yl]acetyl}piperidin-4-yl)-1,3-thiazol-4-yl]-3-phenylpropan-1-one] here?
**A.** 3.64

**Q.** With `CON=C(CC1CCCCC1)c1csc(C2CCN(C(=O)Cn3nc(C(F)F)cc3C(F)F)CC2)n1` [Compound I-60, 2-[3,5-Bis(difluoromethyl)-1H-pyrazol-1-yl]-1-{4-[4-(2-cyclohexyl-N-methoxyethanimidoyl)-1,3-thiazol-2-yl]piperidin-1-yl}ethanone] as the compound, how does the chromatographic logP read?
**A.** 4.8

**Q.** Which chromatographic logP does the source give for `O=C(/C=C/c1csc(C2CCN(C(=O)Cn3nc(C(F)F)cc3C(F)F)CC2)n1)c1c(F)cccc1F` [Compound I-22, (2E)-3-[2-(1-{[3,5-Bis(difluoromethyl)-1H-pyrazol-1-yl]acetyl}piperidin-4-yl)-1,3-thiazol-4-yl]-1-(2,6-difluorophenyl)prop-2-en-1-one] here?
**A.** 3.35

experiment: not given; details: neutral range, pH 7.8, 0.001 molar aqueous ammonium bicarbonate/acetonitrile

**Q.** With `Cc1cc(C(F)(F)F)nn1CC(=O)N1CCC(c2nc(C(=O)CC3CCCCC3)cs2)CC1` [Compound I-17] as the compound, how does the “log P [b]” value read?
**A.** 4.24^[b]

**Q.** Which “log P [b]” value does the source give for `Cc1cccc(C)c1C(=O)/C=C/c1csc(C2CCN(C(=O)Cn3nc(C(F)F)cc3C(F)F)CC2)n1` [Compound I-63] here?
**A.** 3.64^[b]

**Q.** With `O=C(/C=C/c1csc(C2CCN(C(=O)Cn3nc(C(F)F)cc3C(F)F)CC2)n1)c1ccccc1Br` [Compound I-29] as the compound, how does the “log P [b]” value read?
**A.** 3.49^[b]

**Q.** With `O=C(CC1CCCCC1)c1csc(C2CCN(C(=O)Nc3cc(C(F)F)ccc3C(F)F)CC2)n1` [Compound I-30] as the compound, how does the “log P [b]” value read?
**A.** 4.34^[b]

**Q.** With `O=C(/C=C/c1csc(C2CCN(C(=O)Cn3nc(C(F)F)cc3C(F)F)CC2)n1)c1ccccc1I` [Compound I-33] as the compound, how does the “log P [b]” value read?
**A.** 3.64^[b]

**Q.** With `O=C(/C=C/c1csc(C2CCN(C(=O)Cn3nc(C(F)F)cc3C(F)F)CC2)n1)c1c(F)cccc1Cl` [Compound I-36] as the compound, how does the “log P [b]” value read?
**A.** 3.51^[b]

**Q.** With `O=C(/C=C/c1csc(C2CCN(C(=O)Cn3nc(C(F)F)cc3C(F)F)CC2)n1)c1cc(F)ccc1Cl` [Compound I-35] as the compound, how does the “log P [b]” value read?
**A.** 3.6^[b]

**Q.** With `COc1ccccc1C(=O)C#Cc1csc(C2CCN(C(=O)Cn3nc(C(F)(F)F)cc3C)CC2)n1` [Compound I-2] as the compound, how does the “log P [b]” value read?
**A.** 3.36^[b]

**Q.** With `Cc1cccc(C(=O)/C=C/c2csc(C3CCN(C(=O)Cn4nc(C(F)F)cc4C(F)F)CC3)n2)c1` [Compound I-38] as the compound, how does the “log P [b]” value read?
**A.** 3.63^[b]

**Q.** With `O=C(/C=C/c1csc(C2CCN(C(=O)Cn3nc(C(F)F)cc3C(F)F)CC2)n1)c1ccccc1` [Compound I-37] as the compound, how does the “log P [b]” value read?
**A.** 3.31^[b]

**Q.** With `Cc1cc(C(F)(F)F)nn1CC(=O)N1CCC(c2nc(CCC(=O)c3ccccc3Cl)cs2)CC1` [Compound I-21] as the compound, how does the “log P [b]” value read?
**A.** 3.63^[b]

**Q.** Which “log P [b]” value does the source give for `O=C(/C=C/c1csc(C2CCN(C(=O)Cn3nc(C(F)F)cc3C(F)F)CC2)n1)c1c(F)cc(F)cc1F` [Compound I-57] here?
**A.** 3.5^[b]

**Q.** With `Cc1cc(C(F)(F)F)nn1CC(=O)N1CCC(c2nc(C(=O)Cc3ccccc3Br)cs2)CC1` [Compound I-13] as the compound, how does the “log P [b]” value read?
**A.** 3.71^[b]

**Q.** For `O=C(/C=C/c1csc(C2CCN(C(=O)Cn3nc(C(F)F)cc3C(F)F)CC2)n1)c1ccc(F)cc1Br` [Compound I-34], which “log P [b]” value is on record?
**A.** 3.68^[b]

**Q.** Which “log P [b]” value does the source give for `O=C(/C=C/c1c(F)cccc1F)c1csc(C2CCN(C(=O)Cn3nc(C(F)F)cc3C(F)F)CC2)n1` [Compound I-62] here?
**A.** 3.59^[b]
